# Assay results as given in PubChem BioAssay AID485344 (National Center for Advancing Translational Sciences (NCATS), 2010).
# Where “and” joins values, the source holds several entries; their conditions need not be identical. Identical values can stand only once. Out of some 340,000 compounds screened, about 6,900 (2%) were called active. No stated cut-off is given here; in the data, active means inhibition above about 30%; inactive means below that, where a call was filed. The entries are a selection whose mix differs from that of the whole data set. The source gives no active or inactive call for entries shown without one.
# Target: D(2) dopamine receptor (Homo sapiens) (UniProt P14416)
# Assay: HTS Assay for Allosteric Antagonists of the Human D2 Dopamine Receptor: Primary Screen for Antagonists; further: 0% is about no effect
# Settings: HEK293 TREx D2 cells, calcium flux, dopamine EC80; at 10 µM; stronger effect = higher value
# In short: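 Compounds are added to dye-loaded, induced HEK293 T-REx cells coupled to calcium release via D2; after a 3 min kinetic read an EC80 dopamine stimulus is given and fluorescence is recorded for 3 more min.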
# UniProt P14416, sequence (P14416 whole entry, looked up): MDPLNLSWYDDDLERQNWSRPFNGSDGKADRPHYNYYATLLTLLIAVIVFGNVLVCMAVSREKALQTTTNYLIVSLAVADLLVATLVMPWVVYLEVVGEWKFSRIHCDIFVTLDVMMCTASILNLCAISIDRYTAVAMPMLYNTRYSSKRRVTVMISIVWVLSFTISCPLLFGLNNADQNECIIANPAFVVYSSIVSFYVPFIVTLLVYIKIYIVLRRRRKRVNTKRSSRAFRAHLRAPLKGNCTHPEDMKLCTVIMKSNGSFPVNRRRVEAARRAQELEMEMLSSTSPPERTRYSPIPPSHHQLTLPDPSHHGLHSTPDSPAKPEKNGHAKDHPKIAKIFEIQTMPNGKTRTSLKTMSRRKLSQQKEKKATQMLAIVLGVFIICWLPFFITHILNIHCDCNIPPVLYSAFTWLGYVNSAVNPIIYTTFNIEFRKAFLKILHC
row,SMILES,inhibition
1,CCCN(CCC)C(=O)C(Cc1ccccc1)NS(=O)(=O)c1ccc2c(c1)c(=O)n(C)c(=O)n2C (centres undefined),-5.47%
2,Cc1ccccc1CCNC(=O)C1CCN(S(=O)(=O)c2ccc3c(ccn3C)c2)CC1,-7.76%
3,Cc1cccc(C)c1NC(=O)Cn1nnc(C(=O)NCc2ccc(F)cc2)c1N,8.33%
4,CS(=O)(=O)c1ccc2nc(NC(=O)C3CCCCC3)sc2c1,active: 30.6%
5,O=C(NCc1ccccc1)c1cc2ccc3cccnc3c2[nH]1,-11.6%
6,CCc1ccc(-n2c(=O)c3c4c(sc3n(CC(=O)c3ccc(Br)cc3)c2=O)CCC4)cc1,-22.5%
7,CC(C)(C)NC(=O)c1oc2ccccc2c1NC(=O)c1ccccc1F,-4.28%
8,Cc1ccc(S(=O)(=O)Nc2ccc3nc(-c4ccc(F)cc4)oc3c2)cc1,15.6%
9,CC1=C(C(=O)N2CCN(c3ccccc3)CC2)C2(CCCCC2)OC1=O,-1.16%
10,CCC(C)NC(=O)CCC(=O)N1Cc2ccccc2Oc2ncccc21 (centres undefined),10%
11,COc1cc(NC(=O)Cn2c(=O)ccc3cc(S(=O)(=O)N4CCCC4)ccc32)cc(OC)c1,-3.03%
12,Cc1ccc(CNC(=O)c2c(C)oc3ncnc(N4CCOCC4)c23)cc1,-7.51%
13,Cc1ccc(-n2nc(C)c(C(=O)O)c2-n2cccc2)cc1,5.93%
14,COc1ccc(CNC(=O)c2cc3ccccn3n2)cc1OC,-3.36%
15,COc1ccc(/C=C\c2onc(C)c2S(=O)(=O)N2CCC(C(=O)Nc3cccc(OC)c3)CC2)cc1,10.7%
16,CCOC(=O)c1c(C)[nH]c(C)c1S(=O)(=O)N(C)CC(=O)Nc1ccc(CC)cc1,14.6%
17,COc1ccc(/C=N/NC(=O)CCN2CCN(c3ccccc3)CC2)c(OC)c1OC,active: 84%
18,Cn1c(C(=O)NCCN2CCN(c3ccccc3F)CC2)cc2c(=O)n(C)c3ccccc3c21,active: 95.5%
19,N#Cc1c(-n2ncnc2-c2ccc(F)cc2)sc2c1CCCCC2,6.25%
20,O=C(CSCc1cnn(-c2ccccc2)c1-n1cccc1)NCc1cccc(Cl)c1,-26.9%
21,CCCSc1ncc(Cl)c(C(=O)Nc2sc3c(c2C(=O)OC)CCCC3)n1,6.14%
22,O=C(C1CCN(S(=O)(=O)c2ccc(Br)s2)CC1)N1CCN(c2cccc(C(F)(F)F)c2)CC1,-0.23%
23,O=C(Nc1ccccc1)c1nc[nH]c1C(=O)O,-6.71%
24,Cc1cc(C)c2c(CC(=O)N(Cc3ccc(Cl)cc3)Cc3ccco3)coc2c1,-12.4%
25,Cc1c(-c2ccccc2)nc2c(Cl)cccc2c1C(=O)OCC(=O)c1ccc(F)cc1,-7.67%

row,SMILES,inhibition
1,COc1cc(OC)c(N(C)C(=O)c2c(C)oc3ncn(CC(C)C)c(=O)c23)cc1Cl,-0.849%
2,CCOC(=O)CSc1nc2cc3c(cc2c(=O)n1Cc1ccc(C(=O)NCCc2ccc(OC)c(OC)c2)cc1)OCO3,1.25%
3,Cc1ccc(NC(=O)Cn2cc(S(=O)(=O)Cc3ccc(F)cc3)c3ccccc32)cc1Cl,-7.57%
4,CCOc1ccccc1C(=O)N(Cc1sccc1C)C1CCS(=O)(=O)C1 (centres undefined),-3.23%
5,COc1ccc(-c2cc(C(F)(F)F)nc(SCC(=O)NCCc3ccccc3)n2)cc1,0.427%
6,COc1ccc(C(=O)c2sc(Nc3ccccc3)nc2N)cc1,-15.1%
7,CC(=O)c1cccc(NC(=O)CN(c2cc(C)cc(C)c2)S(=O)(=O)c2c(C)noc2C)c1,-6.7%
8,N#Cc1c(C(F)(F)F)cc(-c2cccs2)nc1SCC(=O)Nc1cccc(Cl)c1,0.0823%
9,COc1ccc(-c2onc(C)c2C)cc1S(=O)(=O)N(C)Cc1ccccc1,0.95%
10,C/C(=N\NC(=O)c1ccccn1)c1ccc(C(=O)O)s1,active: 59.3%
11,CCOC(=O)N1CCC(NCCNC(=O)c2ccc(F)cc2)CC1,active: 66.2%
12,COc1ccc(NC(=O)c2ccco2)cc1NC(=O)c1cc(OC)c(OC)c(OC)c1,-5.1%
13,COc1ccc(S(=O)(=O)N2CCCCC2)cc1NC(=O)Cc1cccs1,active: 37.9%
14,CCCNC(=O)C1CCC(Cn2c(=O)c3sccc3n(CC(=O)NCc3cccc(OC)c3OC)c2=O)CC1 (centres undefined),1.21%
15,O=C1C=C(c2cccc(CO)c2)C[C@@H](c2ccc(Cl)cc2)C1,active: 52.1%
16,CCOc1ccc(N2CC(NC(=O)C3CCCC3)CC2=O)cc1 (centres undefined),-17.3%
17,Cc1cc(C)c2c(NC(=O)c3ccccc3)c(C(=O)Nc3ccc(F)cc3)sc2n1,6.27%
18,COc1cccc(N2CC(NC(=O)c3cc(Cl)ccc3OC)CC2=O)c1 (centres undefined),-16.5%
19,COc1ccc(OC)c(NS(=O)(=O)c2ccc(N3CCCCS3(=O)=O)cc2)c1,8.27%
20,Cc1ccc(C(=O)N/C(=C\c2ccc(Cl)cc2)C(=O)NC2CCCCC2)cc1,-9.12%
21,Cc1cccc(NC(=O)Cn2c(=O)n(CCCCCC(=O)NCc3ccc4c(c3)OCO4)c(=O)c3sccc32)c1,-0.758%
22,COC(=O)c1scc(-c2ccc(C)cc2)c1S(=O)(=O)Nc1cc(C)ccc1OC,2.14%
23,Cc1ccc(NC(=O)c2cnc3sc(N4CCOCC4)nn3c2=O)cc1N(C)C,9.63%
24,COc1ccc(Nc2nc(C)nc(N)c2S(=O)(=O)c2ccccc2)cc1,8.89%
25,COc1ccccc1C(=O)Nc1sc(Nc2ccccc2)nc1C(N)=O,12%

row,SMILES,inhibition
1,O=C(c1ccc2c(c1)N(Cc1ccccc1)C(=O)c1ccccc1S2(=O)=O)N1CCN(Cc2ccccc2)CC1,-20.8%
2,CC(C)CCn1c(/C=C/c2ccccc2)nc2ccccc21,1.2%
3,Cc1ccc(-c2cn3ccc(C)cc3n2)cc1,7.37%
4,Cc1cc(C)cc(NC(=O)CSc2nc3nccnc3c(=O)n2CCc2c[nH]c3ccccc23)c1,14.8%
5,O=C(Nc1ccccc1Cl)N1CCSc2ccccc21,6.26%
6,CCOC(=O)Cn1c(=O)n(C2CCCCC2)c2nc(-c3c(F)cccc3Cl)nc(C(N)=O)c21,1.72%
7,CCOC(=O)Cc1ccc(NC(=O)N(Cc2ccc(CC)cc2)Cc2cn[nH]c2-c2ccc(OC)cc2)cc1,-15%
8,COc1cccc(C(=O)Nc2nc(-c3ccc(Br)cc3)ns2)c1,-4.63%
9,Cc1ccc(S(=O)(=O)N2CCN(Cc3nc4ccc(C)cc4o3)CC2)c(C)c1,-12%
10,Cc1ccccc1OCCn1c(CCNC(=O)C2CCCCC2)nc2ccccc21,12.7%
11,Cc1nc2ccc(S(=O)(=O)NCC(=O)Nc3ccc(F)cc3F)cc2s1,17.7%
12,CC(C)(C)C(=O)Nc1ccccc1C(=O)OCc1cc(=O)n2ccsc2n1,5.09%
13,CCc1ccc(OCCn2c(C3CC(=O)N(Cc4ccc(F)cc4)C3)nc3ccccc32)cc1 (centres undefined),-3.53%
14,CCc1ccccc1-n1nnc(-c2nsc(NC(=O)c3ccc(C)c(C)c3)n2)c1C,-2.22%
15,CCOC(=O)c1c(C)[nH]c(C)c1S(=O)(=O)N(C)CC(=O)Nc1ccc(C)cc1Br,0.753%
16,COCCCNC(=O)CSC1=Nc2ccccc2C2=NC(CCC(=O)NCc3ccc(OC)cc3)C(=O)N12 (centres undefined),8.67%
17,CCCCn1c(=O)nc2n(-c3ccc(Br)cc3)c3ccccc3cc-2c1=O,9%
18,Oc1ccc[n+](/C=C\c2ccccc2)c1,active: 37.9%
19,CC1CCCN(CCCNC(=O)Cn2ncc3c([nH]c4ccccc43)c2=O)C1 (centres undefined),-9.38%
20,Nc1nn(-c2ccccc2)nc1C(=O)OCc1ccccc1,0.0898%
21,Cc1ccc(/C=C(\C#N)C(=O)Nc2cccc(Br)c2)o1,-2.54%
22,Cc1ccc(Cl)cc1N1CCN(C(=O)c2cc3c(=O)oc4ccccc4c3s2)CC1,1.52%
23,CCN1CCN(C(c2ccccc2Cl)c2c(O)cc(C)n(CCOC)c2=O)CC1 (centres undefined),16.2%
24,Cc1oc(-c2ccc(Cl)cc2)nc1CN1CCCC(C(=O)NCc2ccccc2)C1 (centres undefined),3.49%
25,Cc1ccc(-n2c(COCC(=O)O)nc3cccnc32)cc1,5.79%

row,SMILES,inhibition
1,Cc1ccc(S(=O)(=O)NCC2CCC(C(=O)NCCCOC(C)C)CC2)cc1 (centres undefined),-22%
2,CCCCNc1nc2ccccc2c2nc(-c3ccccc3)nn12,12.7%
3,CCCCN(CC)CCNC(=O)c1cc2c(=O)n(CC)c3ccccc3c2s1,-10.4% and active: 35.7%
4,CCCCNCCOc1ccccc1-c1ccccc1,active: 69.5%
5,COc1ccc(C)cc1NC(=O)NC1CCN(Cc2ccccc2)CC1,active: 75.1%
6,Cc1ccccc1NC(=O)c1oc2c(c1C)-c1nn(Cc3cccc(Cl)c3)cc1CC2,5.95%
7,Cc1nc(SCCOc2ccccc2F)[nH]c(=O)c1Cc1ccccc1,11.1%
8,CC(C)CNC(=O)NC(=O)COc1ncnc2sccc12,active: 37.2%
9,CCn1c(C)c(C(=O)c2ccccc2)c(C#N)c1C(=O)O,active: 33.4%
10,Fc1ccccc1N1CCN(c2nccn3nc(-c4ccc(Br)cc4)cc23)CC1,-8.35%
11,Cc1ccc(NC(=O)Cn2nc(Cc3ccncc3)c3ccccc3c2=O)c(Cl)c1,-10.4%
12,CCc1c(C)nc2nncn2c1NCc1ccc(Cl)cc1,-13.2%
13,COc1ccccc1CNC(=O)CN1N=C(c2ccccc2)CCC1=O,10%
14,CCOc1ccc(NC(=O)c2oc3ccccc3c2NC(=O)c2ccc(OC)cc2OC)cc1,6.93%
15,C=CCc1ccccc1OCCNCCCOC,active: 69.1%
16,CC(C)(Oc1ccc(Br)cc1)C(=O)Nc1cc(-c2nc3ccccc3[nH]2)ccc1Cl,-7.32%
17,O=C(CN1N=C(c2ccc(Cl)cc2)CCC1=O)NCCc1ccccc1,8.43%
18,CCOC(=O)CC(NC(=O)Cn1nnc(-c2ccccc2F)n1)c1ccccc1Cl (centres undefined),-15.8%
19,CCc1ccc(C2C(C(=O)Nc3ccccc3C)=C(C)Nc3nc(SCc4cccc(OC)c4)nn32)cc1 (centres undefined),-4.64%
20,CC(=O)c1ccc(NC(=O)CSc2nc(=O)n(Cc3ccncc3)c3c2CCC3)cc1,-17.7%
21,O=C(Cn1c(=O)nc(-c2ccccc2)c2ccccc21)NCc1ccccc1Cl,14.6%
22,CCS(=O)(=O)c1ncc(N(Cc2ccco2)Cc2ccccc2F)c(C(=O)Nc2cccc(Cl)c2)n1,11.7%
23,CCOC(=O)CC1=C(C#N)C(c2cccnc2)C(C(=O)OCC)=C(N)O1 (centres undefined),active: 37.7%
24,Cc1ccc(N2CCN(C(=O)c3cn(C)c4ccc(S(=O)(=O)N(C)C)cc4c3=O)CC2C)cc1 (centres undefined),19.9%
